Test results published in the supplement of paper PMC10126150.
Sequences with one replicate were seen in a single cluster, so their values are uncertain.

Test system: ATP
Assay: switch fluorescence ratio, 500 uM ATP over buffer (Cy3 cluster intensity, sum of 5 cycles each) (fold (ratio)); higher = stronger signal-on switching upon ATP binding; sequences stand for … in TCGTCGGCAGCGTCAGATGTGTATAAGAGACAGTTTTTTTTTTTTTTTTTTTTTTTTT…TC
Conditions: aptamer strand: ATP DNA aptamer (quencher-CACCTGGGGGAGTATTGCGGAGGAAGG + anchor), 100 nM annealed; ATP concentration: 500 uM; one replicate
Method in brief: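 Cy3-labelled switching-strand clusters on a modified Illumina MiSeq flow-cell were annealed to 100 nM quencher-labelled ATP aptamer, imaged in selection buffer, then imaged after 15 min with 500 uM ATP at 22 °C. Five buffer/ATP cycles ran, with NaOH stripping and re-annealing between them. The fluorescence ratio is summed target-cycle over summed buffer-cycle Cy3 intensity per cluster, averaged per switch-domain sequence. Clusters outside 100-1000 RFU were excluded.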
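Note: ATP exposure 15 min at 22 °C before imaging.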

Sequence | switch fluorescence ratio
TCCAAGATCA | 1.01
CAGTGTTCCA | 1.01
GCGATGGGCA | 0.992
TATCATCGAC | 1.04
CCGGAACCGC | 1.8
ACGAACATAT | 1.27
GGAGTTCACT | 0.987
TGAGGGGTAC | 1.02
TAAATTTTAC | 1.1
ACAACTAGAG | 1.01
CTCGACTTCC | 2.6
GCCCCAGCTG | 1.71
TCTCCATCTC | 1.12
CGTTCTACCA | 0.974
GTCCTAATTC | 1.03
CGTAACGATC | 1.05
AGGTGTCAT | 1.01
AAAGTAGTAT | 0.993
CATATCGCTG | 1.01
CAGAGTCTGA | 1.01
ATTGTACTTT | 1.02
AACGATAACT | 1.08
TAGATGCCGT | 0.987
TTACCCGTTG | 0.977
CGGAGGCACA | 1.65
GCATCTATCA | 1.01

Sequence | switch fluorescence ratio
AGAAAGTTGG | 1.01
GCACGGTACA | 1.68
GTCAGTCCGA | 1.01
TAAAGGGTGT | 1.02
CTCGTGAATT | 1.01
GATGTCGATC | 1.02
CTGGTTCAG | 0.993
CGTTTTAGGG | 0.977
ATCCGCGTGG | 1.01
GGTGGGACGA | 1.03
AGTCGGGTTT | 1.03
TCCGAGCTGG | 2.35
GTCCGCAACG | 3.55
GTTTAAGCAA | 1.09
AAGTCCTACG | 1.08
TCAGCGAGG | 1.03
TAAACTTCAT | 0.989
CGTGCCGGAA | 1.03
TAGAAAGC | 0.984
TCGAATTATG | 1
AGCGGCAGAT | 0.983
TTACTCGGAA | 1.22
CGCTCGAGGC | 1.06
TGCATTTTCC | 1.04
AAATGCGTCG | 1.07
CAGTCTTTCT | 1.01

Sequence | switch fluorescence ratio
CCGCGTCTGG | 1.18
AGCGATCTA | 1.01
TAAACATCGC | 1.03
GGCATCTTCG | 0.988
AAGCCGGTTT | 1.01
GGTAACGGGA | 1.01
AAAAGAACCG | 1.08
TAGGCGGGCT | 0.958
CGCCCAATCG | 1.45
ATAGGGAACG | 0.969
CCGATGTAGA | 1.06
TAACGCCCAT | 1.08
GCGGCACTCA | 1.07
TTATATTTTA | 0.956
TAAAAAACAG | 0.993
CAGTCGTA | 1.08
TAGCCTCCA | 1.07
ATGAATGG | 1.02
CGTCTGTGCT | 1.02
TTTAGCGGTG | 0.987
CTCCTACTAG | 1.09
CCGAGCCTTC | 4.13
AGAGGGTGAA | 1.02
GGCGTAACG | 1.02
CGTACACATA | 1.07
GGCTCTTGGC | 0.996

Sequence | switch fluorescence ratio
TAATAGTCGA | 0.983
GAGTTGCGGG | 1.03
CACTAGGTTC | 1.04
TCGTTCTGCA | 1.12
ATACGAGAGA | 1
CATTTGCCTC | 1.14
AAACATAGAA | 0.96
CCAGGGCGTA | 1.02
TCTCTTTCCT | 1.06
CGGAGCTAAT | 4.14
CCACTGCGAA | 2.42
GTTCCGTTGA | 1.05
GGTAATTTAC | 1.03
CCTGATAACC | 1.04
CTCTCTTGTG | 0.987
ACGTGATTAG | 1.04
TTCAATACGA | 1.61
TTGTGTTAAC | 1.03
TTCTTTTGCC | 0.989
ATGGTATGTG | 1.01
ATAGGCACCG | 1.1
TATGCTCATT | 0.999
TACCAGCCGT | 0.962
AGAAGGCCAT | 1.07
ACTGGGTGTG | 0.989
GCATATTAGA | 0.997

Sequence | switch fluorescence ratio
CGCTTGTCGG | 1
CGTACTTTTG | 1.01
AGCACCGGCA | 1.05
GGTTCGTAGG | 1
TTCAAACCAT | 0.993
GCGTTGTCTA | 1.02
TCGGAGGACT | 0.967
GGTGGCTAGG | 0.997
ACTAAGCGGC | 1.08
AGGTAAAAAT | 0.997
ATCCAGGGGC | 2.01
TGTAACCATG | 0.948
AACATCAGGT | 1.02
TTGTCATGCA | 1.01
GTGCCGATTT | 1.02
ATTTGCAGAA | 0.994
GCACATAGTC | 1.24
ACAGTAGAGC | 0.995
ATTGACCTGA | 1.07
AGTATAGACA | 1.02
TTTCTGATAT | 1.04
CCCCATTCTC | 1.09
ACCAGTGGCG | 1.08
GAAGAAGTC | 0.938
GAAGGTCACA | 1.05
CATGAATCTT | 0.977

Sequence | switch fluorescence ratio
GCAGTTCGTC | 1
GATCTGTTGA | 0.981
CCGTTTCGTA | 1.04
GGGATGTGTG | 0.991
CCCGATGGTG | 1.79
GTCAGTAAAA | 0.976
GAGGAAGGA | 1.02
AGGCAAAGGA | 1
CTGAGGAGTA | 1.02
GACAGGACAG | 0.964
TTGGGCAATG | 1
CCATCAAAAA | 0.973
TTGATCATTT | 0.984
GGTGGGGTCA | 1.02
TGGTTACGTG | 1.03
TTTAGATAA | 0.963
TGGTAGAAAA | 0.962
TGGGATTTAT | 0.954
GCCAAGCGCG | 1.04
GCGTCGTCTT | 0.988
CGCGCAGATA | 1.07
GCGGTGGGTA | 0.985
AGGCGTGAAC | 1.03
GCTCTAGAGG | 1
TCCGTAAGTT | 1.1
GCATGGCAGC | 0.985

Sequence | switch fluorescence ratio
TTTCTAGCTG | 1.06
GAAATGAGCT | 1
GGGACGCATT | 4
CTCAGCGGGG | 1.05
GAGCCTCAAT | 1.08
GCGCCAGCCC | 1.01
GGATAGTAGC | 1.03
CAATCAGACG | 1.08
CTCTGTATGC | 2
GATCAGTAAG | 1.01
CCGGCAGGCG | 1.02
GAGCTCCAGT | 0.99
CAGCTGAATA | 1.05
TTAAAACTGT | 1.1
GCCTTGGCGC | 0.982
GGCCGTCGTG | 0.977
ATTGTGTTAT | 0.996
TCTAGTAAGG | 1.01
AACTGTGAAC | 1.01
GCCATAGCTA | 1.06
TGGAAACTGA | 0.992
CTTTCACTTG | 1.04
TGCCTGTCAT | 1.04
AGTTTCA | 1
ATTGTCCCTG | 1
TTCTTTGTAC | 0.991

Sequence | switch fluorescence ratio
AATCGAATTT | 1.02
CCGCTAGAGC | 3.88
CAAAGGTCGT | 1
CCAGGCCTGT | 1.03
TACGGAAGAG | 1.11
AGTCGATTGC | 0.977
CACTCGCGGG | 0.968
TAGACCCTTT | 0.968
TTTGTATAC | 1.66
GTTAGGCCTT | 1.05
AGCTCGGGTT | 0.975
AGCATTGACA | 1.14
CGGTCAGGCC | 0.985
TACTTGCCTT | 1.06
CGTGCCAAA | 0.987
TTGAGCTTGG | 0.971
GTTACTCCTC | 1.06
GGGTTGCCTA | 1.01
ACTGTTTCGG | 1.01
